Laboratory results published in publication PMC12136788.
This is one part of the list.

T1: UNK ZnF1-6 (called full-length) (human, UniProt Q9C0B0 30-357)
T1 sequence: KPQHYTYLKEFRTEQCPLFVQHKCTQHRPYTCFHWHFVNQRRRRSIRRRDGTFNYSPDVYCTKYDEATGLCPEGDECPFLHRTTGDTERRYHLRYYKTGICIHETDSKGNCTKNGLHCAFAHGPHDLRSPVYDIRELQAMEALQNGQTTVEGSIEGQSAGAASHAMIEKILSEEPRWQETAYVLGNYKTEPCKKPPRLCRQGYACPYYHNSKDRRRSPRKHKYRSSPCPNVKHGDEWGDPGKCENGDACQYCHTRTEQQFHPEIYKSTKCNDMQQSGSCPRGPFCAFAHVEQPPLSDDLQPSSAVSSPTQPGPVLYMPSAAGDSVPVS

B1: ENSG00000136451:be:win_651|CDS|ENSG00000136451|bound_else_gene|NA|bound_elsewhere_windowed (ssRNA)
RNA: GGGAGUUCUACAGUCCGACGAUCGACUUACCAUGUGAGGUCUCAUGAAGGAGGCAUCACCAAACCCUAUACUUGCAGUGUUUGUGGGAAAGGCUUCUCAAGGCCUGACCACUUAAGCUGUCAUGUAAAACAUGUCCAUUCAACCAACAGAGGAUUGAGCAUCA
B2: chr22:21921976:21922077:-|3pUTR|ENSG00000100034|msi1|FALSE|unique (ssRNA)
RNA: GGGAGUUCUACAGUCCGACGAUCGACUGCAGUGGGCUCGGAUAGGCCCAUUGAGGUUUUUAGAAAAGCAGGAUUUGUUUUGUUAGGGAGGCAUGAUUUUGGUGAGAUCUUUCUGGAAGAGUUUUCCGCCUCUUUGUGAUGCUGCAACAGAGGAUUGAGCAUCA
B3: chr6:89084018:89084151:+|CDS|ENSG00000146278|unk|FALSE|unique (ssRNA)
RNA: GGGAGUUCUACAGUCCGACGAUCACUGAAGUGAGCCAAAAGGAAAAUUAUGCUGGGGCAAAGUUUAGUGAUCCACCUUCUCCUAGUGUUCUUCCAAAGCCUCCUAGUCACUGGAUGGGAAGCACUGUUGAAAAUUCCAACCAACAACAGAGGAUUGAGCAUCA
B4: ENSG00000010278:stop:overlap|stop_codon|ENSG00000010278|stop_codon|NA|stop_codon (ssRNA)
RNA: GGGAGUUCUACAGUCCGACGAUCUUGGCAUGAUCUUCAGUAUGAUCUUGUGCUGUGCUAUCCGCAGGAACCGCGAGAUGGUCUAGAGUCAGCUUACAUCCCUGAGCAGGAAAGUUUACCCAUGAAGAUUGGUGGGAUUUUUUGCAACAGAGGAUUGAGCAUCA
B5: ENSG00000107863:be:win_6201|3pUTR|ENSG00000107863|bound_else_gene|NA|bound_elsewhere_windowed (ssRNA)
RNA: GGGAGUUCUACAGUCCGACGAUCACUAACAAAAGUGCCUCAUCAUAAAAAUACAGUUGGUUUUUAGGGUGCCAUAUUGUUAAAAUUAGAUAACUUACUUACAUUGAAUAAACGAAUGCGUUUUAUUGGUAACAGAUAUCAUUACAACAGAGGAUUGAGCAUCA
B6: chr17:49053040:49053141:+|3pUTR|ENSG00000159217|unk|FALSE|unique (ssRNA)
RNA: GGGAGUUCUACAGUCCGACGAUCCUCAGCUCCUGUGAGGGGUCUGGUUAGGAGAGAGCCAUUUUUAAGGACAGGGAGUUUUAUAGCCCUUUUCUACUUUCCUCCCCUCCUCCCAGUCCUUAUCAAUCUUUUUUCCUUUUUCCUCAACAGAGGAUUGAGCAUCA
B7: chr7:95359871:95360131:-|three_prime_utr|ENSG00000105852|control|control|control (ssRNA)
RNA: GGGAGUUCUACAGUCCGACGAUCCAAUGGCUCUGUGCUUCAGGGCACCUCUGUGGCUUCUGUGUACCAUGGGAAAAUUCUCAUAGGCACCGUAUUUCACAAAACUCUGUACUGUGAGCUCUAGACUCUAGAUAGUAAAAAAAACAACAGAGGAUUGAGCAUCA
B8: chr6:56640275:56640385:-|CDS|ENSG00000151914|unk|FALSE|bound_elsewhere (ssRNA)
RNA: GGGAGUUCUACAGUCCGACGAUCGACUUCCCGCCUGACUCCAUCUGUCACUCCAGCUUAUACACCUGGUUUCCCAUCAGGAUUAGUUCCAAAUUUCAGUUCAGGAGUAGAGCCAAAUUCAUUGCAAACUUUGAAGUUGAUGCACAACAGAGGAUUGAGCAUCA
B9: chr1:169588848:169589605:-|three_prime_utr|ENSG00000174175|control|control|control (ssRNA)
RNA: GGGAGUUCUACAGUCCGACGAUCAUAAUGCAUUUGCUGCAGGUUUCCAUAAACACCCAUGAAUCAAAGACAUGGAAUUACCUUAGAUUAGCUCUGGACCAGCCUGUUGGACCCGCUCUGGACCAACCCUGUUUCCUGAGUUUGCAACAGAGGAUUGAGCAUCA
B10: chr5:97028609:97028710:+|3pUTR|ENSG00000113441|msi1|FALSE|bound_elsewhere (ssRNA)
RNA: GGGAGUUCUACAGUCCGACGAUCUUGCAAAAGCCAAGGUAAAGCCAGGAUCGCUGCCAAGUUGUUUGCACUCUUUGGAGUUCUAGUUAGCUCAGGGCCUGACUGUAUUUUUCAUCCAUCUUUUCUGAAGUGUCUUUGGGCAGUCAACAGAGGAUUGAGCAUCA
B11: chr4:41958937:41959038:+|3pUTR|ENSG00000109133|msi1|total|mutant (ssRNA)
RNA: GGGAGUUCUACAGUCCGACGAUCUCUUGAACUCCUGGCCUCAAGUGAUCUGCCCGCCUCGACCUCCCAGAGUGCUGGGAUUACCGGUGUGAGCCACUAAGCCUGGCUGAGACAACCCGUUUCCCUUAACUCAUUGGAAUUCUCCAACAGAGGAUUGAGCAUCA
B12: chr14:101901747:101901860:+|CDS|ENSG00000078304|unk|total|mutant (ssRNA)
RNA: GGGAGUUCUACAGUCCGACGAUCCUGGCCAAAGACUCACAGUCCAAAAGAAGUAAUGUUCUUAAACGAAUCCGAAGAGAUUUCCGAUGUCAUUGAACCAUCAGAAUUUGUGAAGAUCAUGGAACCCCUCUUCCGGCAGUUGGCCAACAGAGGAUUGAGCAUCA
B13: chr2:27243795:27243896:+|3pUTR|ENSG00000084774|unk|FALSE|unique (ssRNA)
RNA: GGGAGUUCUACAGUCCGACGAUCACUUAAUAAACAGCCGAGCUGUCCCUUGAUGCUGAGUGUAGUAGAACAGAGCUUUCUUUUAGAAAAUUGAGCAGAUUCCCAAAUUAUAAGAGCAGCCUCACCAGGCAGGGCUCUGGCUAGCAACAGAGGAUUGAGCAUCA
B14: chr14:103519669:103519777:-|3pUTR|ENSG00000166165|unk|total|mutant (ssRNA)
RNA: GGGAGUUCUACAGUCCGACGAUCCUGAUGUUCGCCGUCUGGCGAGCCCUCCGCCUUGCUGCCGAGACUUCCGUCACCCUUGGCCGAGUUUAUUUUUUUGAUGGCUAAGAUACUGCUGAUGCUGAAAUAAACCCGGGUUUUGGCCAACAGAGGAUUGAGCAUCA
B15: chr19:3536616:3536717:+|3pUTR|ENSG00000105325|msi1|total|mutant (ssRNA)
RNA: GGGAGUUCUACAGUCCGACGAUCACCGCCGCAGGGCCAGGCGGACGGCGUGAGGUUUGUGUUGGGGCUGGUUCUGCCCAUGCCCGGGGGUGGGGGAGCUCCCAGGACAGACCAGCCUUGUUUCUCAUGUAAUGCAGUGACGCUCAACAGAGGAUUGAGCAUCA
B16: chr17:63423787:63423888:+|3pUTR|ENSG00000170921|msi1|total|mutant (ssRNA)
RNA: GGGAGUUCUACAGUCCGACGAUCCUAACUCAAGCCCCAGCCUCUUUCCACACUCCCUGAUACCUAAGGACUGCUUUCUCAGCCCGACCAGGGUGGGCAUCAGCGACGCCUUCUCAGCCCGACCAGGGCCGGCAUCAGCGUCCUCAACAGAGGAUUGAGCAUCA
B17: chrX:133301433:133301604:-|3pUTR|ENSG00000076716|msi1|total|mutant (ssRNA)
RNA: GGGAGUUCUACAGUCCGACGAUCUUGUUUUUCUUGGGGGAUGGGGUGGGGUGGGAGCCGGCCGAGCUGAGAAUACUACAUCUCCGUGGUGACCUUCCGCCACGUGGGUGAAGUGGCAAAGGCCAUGGCCAUAUCUGUUGUCCCCAACAGAGGAUUGAGCAUCA
B18: ENSG00000070961:be:win_4301|3pUTR|ENSG00000070961|bound_else_gene|NA|bound_elsewhere_windowed (ssRNA)
RNA: GGGAGUUCUACAGUCCGACGAUCGCUAAUACUAAUAGCCAAAUAGAUAACACUAAUGCUUUGUUUAAAAAAACGAAAAAAACAAAACAAAACAAAAAAACAUGAGCAGUGGUGUUCUAAUGAAGUUAUGACAUCUGUCCUAAUCAACAGAGGAUUGAGCAUCA
B19: chr5:113014749:113014850:+|3pUTR|ENSG00000172795|msi1|total|mutant (ssRNA)
RNA: GGGAGUUCUACAGUCCGACGAUCUAAAAAUCCUUUUUUACAGUGGUAUCCACAAAAUACUUCUCUGCUUAUAAAUGUUAUUGCCGAAAUCUUUAUUCUGUGCCGGCCGCCUAUUUAAUUGGGUUCCACUGAACCUCAUGGGACCAACAGAGGAUUGAGCAUCA
B20: chr5:151662667:151662729:-|3pUTR|ENSG00000113140|msi1_unk|FALSE|overlapping (ssRNA)
RNA: GGGAGUUCUACAGUCCGACGAUCGCCAGGCUGUUUCAGCCAGGAAGGCCAAAAUCAAGAGUGAGAUGUAGAAAGUUGUAAAAUAGAAAAAGUGGAGUUGGUGAAUCGGUUGUUCUUUCCUCACAUUUGGAUGAUUGUCAUAAGCAACAGAGGAUUGAGCAUCA
B21: chr5:10264816:10264917:+|3pUTR|ENSG00000150753|msi1_unk|FALSE|overlapping (ssRNA)
RNA: GGGAGUUCUACAGUCCGACGAUCAAUGGAUGUCUCGUGAUGCAUCUACAGUUAUUUAUUGUUACAUCCUUUUCCAGACACUGUAGAUGCUAUAAUAAAAAUAGCUGUUUGGUAACCAUAGUUUCACUUGUUCAAAGCUGUGUACAACAGAGGAUUGAGCAUCA
B22: chr17:7656804:7656905:+|3pUTR|ENSG00000129244|unk|FALSE|unique (ssRNA)
RNA: GGGAGUUCUACAGUCCGACGAUCGCAUGUGCCACCAUGCCCGGCUAAUUUCUUUCUUUCUUUUUUUUUUUUUUUGCAUUUUUUAGUAGAGAUGGGGGUUUCUCCUUGUUGGUCAGGCUGGUCUCGAACUCCCGACCUCAGGUGCAACAGAGGAUUGAGCAUCA

The binders below were run against T1, UNK ZnF1-6 (called full-length) (assay: nsRBNS (natural sequence RNA bind-n-seq); RBNS binding buffer (assumed for nsRBNS): 25 mM Tris pH 7.5, 150 mM KCl, 3 mM MgCl2, 0.01% Triton X-100, 500 ug/ml BSA, 20 U/ml SUPERase-In, 4 C; UNK is unkempt and MSI1 is Musashi-1; names of the RNAs are library labels; protein concentration not given here; high values mean tight binding).

Binder	binding signal
B1	0.353 enrichment R
B2	0.813 enrichment R
B3	0.494 enrichment R
B4	0.514 enrichment R
B5	1.18 enrichment R
B6	3.9 enrichment R
B7	2.18 enrichment R
B8	0.584 enrichment R
B9	1.37 enrichment R
B10	0.475 enrichment R
B11	0.642 enrichment R
B12	0.427 enrichment R
B13	0.984 enrichment R
B14	0.776 enrichment R
B15	0.79 enrichment R
B16	0.802 enrichment R
B17	1.2 enrichment R
B18	0.858 enrichment R
B19	0.567 enrichment R
B20	2.11 enrichment R
B21	1 enrichment R
B22	8.51 enrichment R
